# Molecular target: porcine trypsin (porcine, UniProt P00761 9-231)
# Experiment: cell-based or functional assay
# Chain of UniProt P00761 (P00761 9-231 limits assumed): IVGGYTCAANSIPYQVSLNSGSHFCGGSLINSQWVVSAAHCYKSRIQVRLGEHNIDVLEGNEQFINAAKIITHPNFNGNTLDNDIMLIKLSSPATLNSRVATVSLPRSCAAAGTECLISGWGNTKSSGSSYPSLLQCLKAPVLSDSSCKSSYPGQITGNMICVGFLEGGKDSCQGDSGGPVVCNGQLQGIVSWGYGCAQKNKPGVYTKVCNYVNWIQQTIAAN
row,"apparent stoichiometry of inhibition (amidolysis of S2444, titration of trypsin activity)",Binder
1,1 mol inhibitor per mol enzyme,ANV-6L15 (other) AQVLRGTVTDFPGFDERADAETLRKAMKGLGTDEESILTLLTSRSNAQRQEISAAFKTLFGRDLLDDLKSELTGKFEKLIVALMKPSRLYDAYELKHALKGAGTNEKVLTEIIASRTPEELRAIKQVYEEEYGSSLEDDVVGDTSGYYQRMLVVLLQANRDPDAGIDEAQVEQDAQALFQAGELKWGTDEEKFITIFGTRSVSHLRKVFDKYMTISGFQIEETIDRETSGNLEQLLLAVVKSIRSIPAYLAETLYYAMKGAGTDDHTLIRVMVSRSEIDLFNIRKEFRKNFATSLYSMIKGDTSGDYKKALLLLAGEDDMHPDFCLEPPYDGPCRALHLRYFYNAKAGLCQTFYYGGCLAKRNNFESAEDCMRTCGGA
2,1 mol inhibitor per mol enzyme,6L15 (designed binder) APDFCLEPPYDGPCRALHLRYFYNAKAGLCQTFYYGGCLAKRNNFESAEDCMRTCGGA
